# Reference: the supplement of paper PMC12217912
# The other results are listed elsewhere or left out. The full chains were built here from the parent and the listed change. Inactive controls read about 0.05.
# B1: TEV protease; numbered along this chain (parent)
# chain: MGESLFKGPRDYNPISSSICHLTNESDGHTTSLYGIGFGPFIITNKHLFRRNNGTLVVQSLHGVFKVKDTTTLQQHLVDGRDMIIIRMPKDFPPFPQKLKFREPQREERICLVTTNFQTKSMSSMVSDTSCTFPSGDGIFWKHWIQTKDGQCGSPLVSTRDGFIVGIHSASNFTNTNNYFTSVPKNFMELLTNQEAQQWVSGWRLNADSVLWGGHKVFMVKPEEPFQPVKEATQL
# Variants of: B1
# Assay: raw area under fraction-flipped curve 0-4 h after induction (AUC4h, not background-subtracted), DNA-recorder readout of cleavage of the substrate (dimensionless); higher = more cleavage of the substrate by the protease variant
# Conditions: temperature: 34 °C; time window: 0-4 h after rhamnose induction
# Protocol: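 In vivo DNA recorder in E. coli TOP10(DE3) ΔrhaA at 34 °C. Each TEVp single-site mutant (parent TEVp 0) is paired with a single-site variant of the 7-mer TEVs (canonical ENLYFQ|S). The substrate sits between flexible linkers in a Bxb1-sfGFP-TEVs-SsrA fusion, so cleavage stabilises Bxb1 and speeds flipping of a recombination array, read by NGS. The value is the raw area under the fraction-flipped curve over 0-4 h after rhamnose induction (AUC4h), with ≥20 reads per time point. It is not background-subtracted; inactive controls average about 0.047.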
# 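Further: Bxb1 expression induced with 0.2% (w/v) L-rhamnose at OD600 near 0.5, cultures sampled hourly, flipped fraction per protease–substrate barcode pair counted by paired-end Illumina sequencing.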
Variant,area with substrate ENAYFQS,area with substrate ENDYFQS,area with substrate ENEYFQS,area with substrate ENFYFQS,area with substrate ENGYFQS,area with substrate ENHYFQS,area with substrate ENIYFQS,area with substrate ENPYFQS,area with substrate ENQYFQS,area with substrate ENRYFQS,area with substrate ENCYFQS,area with substrate ENKYFQS,area with substrate ENSYFQS,area with substrate ENMYFQS,area with substrate ENNYFQS,area with substrate ENTYFQS,area with substrate ENVYFQS,area with substrate ENWYFQS,area with substrate ENYYFQS
G54K,0.062,0.0571,0.0658,0.0738,0.0504,0.0556,0.0565,0.057,0.058,0.041,,,,,,,,,
G54A,0.0664,0.0595,0.0518,0.0622,0.0663,0.0475,0.0668,,0.0604,,0.0614,0.0655,0.0596,,,,,,
G54M,0.0584,,0.0575,0.049,0.0504,,0.0882,0.0585,0.0745,0.0511,0.0813,,0.0613,0.0571,0.0607,0.0161,0.0574,0.018,
G54W,0.0551,0.0657,0.0579,,0.0354,0.0508,0.061,0.06,0.0591,0.0498,0.0549,,0.0425,,,0.0492,0.0553,0.0425,
G54C,0.0594,0.0714,0.0619,0.0438,0.053,0.0605,0.0915,0.055,0.0605,0.0686,0.067,0.0468,0.0586,,0.065,0.0594,,0.0664,
D69S,0.0694,0.0634,0.077,0.0514,,0.0538,0.0843,0.0503,0.0607,0.0463,0.0639,,0.0433,0.0687,0.0579,0.059,0.0537,0.0639,0.0654
D82L,0.0458,0.0433,0.0634,0.0504,0.0554,,,0.054,0.0486,0.0589,0.0556,0.0534,,,,,,,
K68Y,0.0622,0.0555,0.064,0.06,0.0781,0.0575,0.107,,0.0508,,0.0516,0.0616,0.0594,,,0.0395,0.0716,,
K68I,0.0612,0.0549,0.0605,0.0551,0.0477,0.0561,0.0973,0.0577,0.0492,0.0516,0.0694,,0.0627,,0.0449,0.072,0.0805,0.0399,
K68A,0.072,,0.0596,0.0437,0.0659,,0.113,,0.0605,0.049,0.0655,0.0554,0.0575,0.0926,0.0754,0.0628,,,0.0734
V57S,0.1,0.0594,0.0746,0.0611,,0.0514,,0.0517,0.0625,0.0597,0.0437,,0.0871,,0.0671,0.0632,,0.0625,0.0837
V57N,0.057,0.0583,0.0802,,,0.0578,0.0929,,0.0728,0.0669,0.0822,0.0404,0.0404,0.0596,,0.0723,0.0994,,
N53Q,0.0621,0.0683,0.0691,0.0717,0.0551,0.0613,,,0.0615,0.0522,0.0676,0.0511,0.0801,,0.0587,0.0554,0.0674,0.056,
K90V,0.0683,0.0733,0.0633,,0.0638,,,0.0622,0.0639,,0.0642,,0.0611,0.0704,0.0732,,,,
K90H,0.063,0.0946,0.0628,0.0744,0.0798,0.0671,0.104,0.0564,,0.0691,0.0588,0.0664,0.0597,0.0681,,,0.109,0.056,
K90G,0.0551,0.0664,0.0672,,,0.0469,,0.0659,0.0552,0.0504,0.0828,,0.0635,0.0921,,0.0808,0.0867,0.0589,
Q75A,0.022,0.0506,0.0628,0.0547,,,,0.0572,0.0497,0.0624,,,0.0575,0.0874,,0.0695,0.0871,,
Q75E,0.0798,0.0594,0.0583,0.0719,,0.061,,,,0.0635,0.0589,,0.064,,0.064,,0.0679,,
Q75W,0.0421,0.0524,0.0554,0.0465,,0.0574,0.0666,0.0596,0.0349,,0.0598,0.0494,0.0407,,,0.0653,0.0577,0.0112,0.0552
D79F,0.0489,,0.0429,0.0643,,,0.0935,,0.0566,0.0643,,,,0.0657,,0.0481,0.0731,,
D79T,0.0551,0.0579,0.0535,0.0673,,0.0514,,,,0.0563,,,0.0656,,,,0.0816,,0.0448
D79W,0.0737,0.0618,0.0633,0.0627,,0.0528,0.0962,,0.0681,,0.0551,0.0816,0.0675,,0.0433,0.0686,0.0775,0.0563,
D79M,0.062,0.0501,0.0484,,0.0653,,0.092,,0.0603,0.0345,,,0.0591,,,0.0657,0.0699,0.0966,
D79K,0.0613,,0.0604,0.0724,0.0671,,0.101,0.0364,0.0626,0.0604,0.0502,0.063,0.0637,0.0595,0.0705,0.0775,,,0.0568
D79S,0.0655,,0.0582,0.0549,,0.0895,,,0.0615,0.0509,,,0.0611,0.101,0.0725,0.0569,0.0713,0.0538,0.0697
F65N,0.0556,,,0.0381,0.0571,0.0535,,0.0611,0.0584,0.0661,0.0663,,0.0601,,,,0.0723,,
G63L,0.0594,0.0529,0.0561,0.0637,0.0612,0.0316,0.0862,,0.054,,0.0521,,0.0589,0.0732,0.0595,0.0594,0.0667,,0.0813
